“And” between values parts separate entries of the source, which are not always exact repeats. Equal entries are not always repeated. About 6,400 (1.6%) of roughly 410,000 compounds were called active. This list was built around the results that the source calls inconclusive (neither active nor inactive); the mix of calls is not that of the screen. Calls follow the shape of the dose curve; as a rule, active = well fitted inhibition curve with a large enough effect; inconclusive = small, poorly fitted or top-dose-only effect; inactive = no such curve, though single readings can be large or run the other way. Potencies beside an inconclusive call are fits to weak or partial responses and may not hold up.
What follows are compounds tested against Glucagon-like peptide 1 receptor (Homo sapiens) (UniProt P43220) (assay: qHTS of GLP-1 Receptor Inverse Agonists (Inhibition Mode)). Conditions: HEK293 GLP-1R CRE-luciferase, luminescence, 24 h, GLP-1R form is constitutively active; series mostly up to 38.3 µM.
Chain of UniProt P43220 (P43220 whole entry, looked up): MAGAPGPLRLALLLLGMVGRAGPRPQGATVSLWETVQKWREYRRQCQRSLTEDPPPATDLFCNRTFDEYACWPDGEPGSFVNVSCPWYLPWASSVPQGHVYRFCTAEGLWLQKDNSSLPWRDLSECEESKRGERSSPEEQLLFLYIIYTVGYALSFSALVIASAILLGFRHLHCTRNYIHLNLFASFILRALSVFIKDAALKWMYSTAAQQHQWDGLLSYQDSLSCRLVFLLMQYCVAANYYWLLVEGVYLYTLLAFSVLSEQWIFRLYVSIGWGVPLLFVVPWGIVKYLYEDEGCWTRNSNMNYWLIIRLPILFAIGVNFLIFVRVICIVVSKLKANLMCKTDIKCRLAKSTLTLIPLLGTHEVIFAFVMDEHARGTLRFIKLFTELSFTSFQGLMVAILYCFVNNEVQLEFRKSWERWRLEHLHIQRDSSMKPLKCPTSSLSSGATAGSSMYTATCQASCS
How it was run: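 Assay principle: reduced luminescence from a cAMP-responsive reporter in HEK293 cells co-expressing a constitutively active GLP-1R. Conditions: 24 hr compound incubation, 37 deg C, 5% CO2.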
For `O=C(c1cc(F)c(F)cc1Cl)N1CCCc2ccccc21`, the Potency was inconclusive: 28.2 µM [inhibitor, single point]. In the case of `CCOC(=O)C1(Cc2ccccc2)CCCN(Cc2ccc(OCCO)cc2)C1` (stereo unspecified), the Potency is reported as inconclusive: 28.2 µM [inhibitor, single point]. `CCN1CCCC1CN(Cc1cc2c(C)cc(C)cc2[nH]c1=O)C(=O)NC1CCCCC1` (stereo unspecified) was tested, and the Potency was inconclusive: 11.2 µM [inhibitor, single point]. `CCOC(=O)C1C(=O)OC(C)(C)C1C(C)C(=O)c1ccc(OC)cc1` (stereo unspecified) was tested, and the Potency was inconclusive: 28.2 µM [inhibitor, single point]. With `COc1cccc2c(C)cc(N3CCCCCC3)nc12` the Potency was inconclusive: 17.8 µM [inhibitor, single point]. For `NC1=NN(c2ccccc2)C(=O)C1`, the Potency was inconclusive: 0.794 µM [inhibitor, full curve, poor fit]. `Cc1ccc(NC(=O)CSc2nc3ccccc3c(=O)n2CCCN2CCCCC2)cc1Cl` was tested, and the Potency was inconclusive: 12.6 µM [inhibitor, partial curve, poor fit]. `Cc1ccc(C(c2c(O)cc(C)n(Cc3ccco3)c2=O)N2CCC(C)CC2)cc1` (stereo unspecified) was tested, and the Potency was inconclusive: 11.2 µM [inhibitor, single point]. For `O=C(N/N=C/c1ccccc1)NC1CCCCC1`, the Potency was inconclusive: 28.2 µM [inhibitor, single point]. With `O=C(NCc1ccccc1)C(=O)Nc1c2c(nn1-c1ccccc1)CSC2` the Potency was inconclusive: 3.98 µM [inhibitor, partial curve, poor fit]. `Cc1ccc(C)c(N2CCN(S(=O)(=O)c3c(C)noc3/C=C/N(C)C)CC2)c1` was tested, and the Potency was inconclusive: 12.6 µM [inhibitor, single point]. With `CC1(C)CC(NC(=O)c2ccccc2NS(=O)(=O)c2ccc(Br)cc2)CC(C)(C)N1` the Potency was inconclusive: 22.4 µM [inhibitor, single point]. With `COc1ccc(-c2cc(-c3ccccc3)c(C#N)c(S(C)=O)n2)cc1` (stereo unspecified) the Potency was inconclusive: 28.2 µM [inhibitor, single point]. `Cc1ccc(S(=O)(=O)N2CCN(C(=O)c3ccc(N4CCCC4)c([N+](=O)[O-])c3)CC2)cc1` was tested, and the Potency was “inactive”. `COc1ccccc1NC(=O)Cn1nc(-c2ccc(Cl)cc2)c2ccccc2c1=O` was tested, and the Potency was inconclusive: 10 µM [inhibitor, partial curve, poor fit]. For `Cc1ccc(CCNC(=O)C23C[C@H]4C[C@@H](C2)CC(n2nnc(C)n2)(C4)C3)cc1`, the Potency was inconclusive: 12.6 µM [inhibitor, single point]. For `Cc1cc(-c2ccc(C)c(S(=O)(=O)NCC3CCN(Cc4ccccc4F)CC3)c2)on1`, the Potency was inconclusive: 10 µM [inhibitor, single point] and inconclusive: 10 µM [inhibitor, partial curve, poor fit]. `COC(=O)[C@]12CCCCC=C1N(Cc1ccccc1)C(=O)[C@H](CC(=O)NCc1cccc(C(F)(F)F)c1)C2` was tested, and the Potency was inconclusive: 10 µM [inhibitor, partial curve, poor fit]. For `CC(C)(C)N1C(=O)c2ccc(C(=O)Nc3ccc(O)cc3)cc2C1=O`, the Potency was inconclusive: 1 µM [inhibitor, full curve, poor fit]. In the case of `CC1=CC(C)(C)N=C(Nc2ccc(C)cc2)S1`, the Potency is reported as inconclusive: 28.2 µM [inhibitor, single point]. For `O=C(Cn1ncc2c3ccccc3n(Cc3ccc(F)cc3)c2c1=O)NCc1ccccn1`, the Potency was “inactive”. With `CC(C)c1ccc(NC(=O)Nc2nc(C(C)N)cs2)cc1` (stereo unspecified) the Potency was inconclusive: 10 µM [inhibitor, single point]. With `CC(C)CN(C(=O)COC(=O)c1cc2ccccc2cc1O)c1c(N)n(Cc2ccccc2)c(=O)[nH]c1=O` the Potency was inconclusive: 12.6 µM [inhibitor, single point]. In the case of `COc1ccc(-c2noc(Cc3ccccc3OC)n2)cc1`, the Potency is reported as inconclusive: 28.2 µM [inhibitor, single point]. In the case of `OC(CNCCc1ccccc1)c1ccccc1` (stereo unspecified), the Potency is reported as “inactive”. With `CCS(=O)(=O)C1=NSC2=NC(=O)/C(=C\c3cc(C)n(-c4cccc(OC)c4)c3C)C(=N)N21` the Potency was inconclusive: 28.2 µM [inhibitor, single point]. `CC(C)CNc1nc(N)c([N+](=O)[O-])c(N2CCCCCC2)n1` was tested, and the Potency was inconclusive: 7.94 µM [inhibitor, partial curve, poor fit]. In the case of `Cc1ccc(C)c(S(=O)(=O)N2CCN(C(=O)Nc3ccccc3)CC2)c1`, the Potency is reported as inconclusive: 10 µM [inhibitor, single point]. In the case of `CC1(c2ccc3ccccc3c2)NC(=O)N(CC(=O)N2CCN(S(=O)(=O)c3ccccc3F)CC2)C1=O` (stereo unspecified), the Potency is reported as inconclusive: 14.1 µM [inhibitor, single point]. With `O=C(c1cccc(C(F)(F)F)c1)N(c1ccccn1)C1CCCCC1` the Potency was inconclusive: 28.2 µM [inhibitor, single point]. `Cc1ccc(Nc2sc(C(=O)c3ccccc3)c(N)c2C(N)=O)cc1` was tested, and the Potency was inconclusive: 10 µM [inhibitor, single point]. `O=C(NC1CCCCC1)C(c1ccc(F)cc1)N(Cc1ccco1)C(=O)c1ccccn1` (stereo unspecified) was tested, and the Potency was inconclusive: 28.2 µM [inhibitor, single point]. For `CC1CCN(C(=O)C2COc3ccccc3C2)CC1` (stereo unspecified), the Potency was “inactive”. In the case of `Fc1ccc(NC(=S)NCCc2ccc(Cl)cc2)cc1`, the Potency is reported as inconclusive: 15.8 µM [inhibitor, single point]. For `COc1ccccc1-c1nc(-c2ccccc2)[nH]c(=O)c1C#N`, the Potency was inconclusive: 2.82 µM [inhibitor, full curve]. `CC(C)CC(N)c1csc(Nc2ccc(C(=O)N(C)Cc3ccccc3)cn2)n1` (stereo unspecified) was tested, and the Potency was inconclusive: 1.12 µM [inhibitor, full curve, poor fit]. For `COc1ccc(S(=O)(=O)NCCOc2ccc(Cl)cc2)cc1`, the Potency was inconclusive: 28.2 µM [inhibitor, single point]. For `COC(=O)C1=C(C)N(Cc2ccccc2)C(=NCc2cccc(Cl)c2)N[C@H]1c1cccc(F)c1`, the Potency was inconclusive: 28.2 µM [inhibitor, single point]. In the case of `O=C(CCCn1c(=O)c2cccn2c2ccccc21)NCc1ccccc1Br`, the Potency is reported as “inactive”. `Cc1ccc(S(=O)(=O)N2CCCC(C(=O)NCc3ccc4c(c3)OCO4)C2)cc1` (stereo unspecified) was tested, and the Potency was inconclusive: 7.08 µM [inhibitor, partial curve, poor fit]. With `CCCCCN1C=CC(=C2C(=O)c3ccccc3C2=O)C=C1` the Potency was inconclusive: 0.355 µM [inhibitor, full curve, poor fit]. `O=C(Nc1ccccc1N1CCN(C(=O)c2ccccc2)CC1)c1ccc(Br)o1` was tested, and the Potency was inconclusive: 28.2 µM [inhibitor, single point]. In the case of `N#Cc1ncc(-c2ccc3c(c2)OCCOCCOCCOCCO3)nc1C#N`, the Potency is reported as “inactive”. In the case of `O=C(NCCC1CCCCN1S(=O)(=O)c1cccs1)C(=O)Nc1ccccc1F` (stereo unspecified), the Potency is reported as inconclusive: 10 µM [inhibitor, partial curve, poor fit]. With `Cc1cccc(S(=O)(=O)NNC(=O)c2cc(-c3ccc(F)cc3)nc3ccccc23)c1` the Potency was inconclusive: 10 µM [inhibitor, partial curve, poor fit]. `COc1ccc(NC(=O)c2ccc3[nH]c(C)c(C)c3c2)c(OC)c1` was tested, and the Potency was “inactive”. With `CC1Cc2ccccc2N1C(=O)COC(=O)c1ccc(O)cc1` (stereo unspecified) the Potency was inconclusive: 2.51 µM [inhibitor, full curve, poor fit]. `c1ccc2[nH]c(CSc3nc4ccccc4s3)nc2c1` was tested, and the Potency was inconclusive: 12.6 µM [inhibitor, single point]. `S=C(Nc1ccc(Cl)cc1Cl)N1CCCC1` was tested, and the Potency was “inactive”. In the case of `CC1CN(C(=S)Nc2ccc(Br)cc2Cl)CC(C)O1` (stereo unspecified), the Potency is reported as inconclusive: 2.82 µM [inhibitor, full curve]. For `CC(C)n1c(NCc2c[nH]c3ccccc23)nc2ccccc21`, the Potency was inconclusive: 12.6 µM [inhibitor, partial curve, poor fit]. `COC(=O)c1c(-c2ccc3ccccc3c2)csc1NC(=O)Cc1ccc(OC)c(OC)c1` was tested, and the Potency was inconclusive: 3.16 µM [inhibitor, partial curve, poor fit]. `Cc1ccc(S(=O)(=O)N(CCc2ccccc2)CC(=O)Nc2ccc(Br)cc2)cc1` was tested, and the Potency was inconclusive: 11.2 µM [inhibitor, single point]. In the case of `CCn1c(=O)c(C(=O)CN(C)Cc2cccc(OC)c2OC)c(N)n(Cc2ccccc2)c1=O`, the Potency is reported as inconclusive: 28.2 µM [inhibitor, partial curve, poor fit]. With `CN(Cc1ccccc1)c1oc(COc2ccccc2F)nc1C#N` the Potency was inconclusive: 15.8 µM [inhibitor, single point]. For `C/C(=N\NC(=O)c1ccc(C)cc1)c1c(C)[nH]n(-c2ccccc2)c1=O`, the Potency was inconclusive: 0.794 µM [inhibitor, full curve, poor fit]. In the case of `O=C1Nc2ccccc2N=C(c2ccccc2)c2ccccc21`, the Potency is reported as inconclusive: 3.55 µM [inhibitor, partial curve, poor fit]. `CCOC(=O)c1ccc(N2C(=O)c3n[nH]c(-c4ccco4)c3C2c2cccc(O)c2)cc1` (stereo unspecified) was tested, and the Potency was inconclusive: 31.6 µM [inhibitor, single point]. With `CCn1ncc(NC(=S)NCCc2ccccc2)c1C(N)=O` the Potency was inconclusive: 28.2 µM [inhibitor, single point]. For `O=C(Cn1cnc2onc(-c3ccc(Cl)cc3)c2c1=O)Nc1ccc(F)cc1`, the Potency was “inactive”. For `COc1ccc(CCC(=O)N2c3ccccc3CC2C)cc1` (stereo unspecified), the Potency was inconclusive: 11.2 µM [inhibitor, single point].

Source: PubChem BioAssay AID624417 (National Center for Advancing Translational Sciences (NCATS), 2012)
Also: nearly all actives have a fitted effect of over 55% in size.
Potency is read from the fitted curve at half-maximal effect; tags tell the direction and shape of the fitted curve.
